Results as given in paper PMC4336329 (PLoS ONE, 2015).
Screen size: about 310,000 compounds; about 2,200 (0.71%) showed an effect of 50% or more. The effect is printed as a negative number. This is one part of the list.

The molecules below were run against human ether-à-go-go-related gene (hERG) potassium channel (human, UniProt Q12809) (assay: primary screen, population patch clamp on CHO cells stably expressing hERG).
human ether-à-go-go-related gene (hERG) potassium channel, sequence (Q12809 whole entry, looked up): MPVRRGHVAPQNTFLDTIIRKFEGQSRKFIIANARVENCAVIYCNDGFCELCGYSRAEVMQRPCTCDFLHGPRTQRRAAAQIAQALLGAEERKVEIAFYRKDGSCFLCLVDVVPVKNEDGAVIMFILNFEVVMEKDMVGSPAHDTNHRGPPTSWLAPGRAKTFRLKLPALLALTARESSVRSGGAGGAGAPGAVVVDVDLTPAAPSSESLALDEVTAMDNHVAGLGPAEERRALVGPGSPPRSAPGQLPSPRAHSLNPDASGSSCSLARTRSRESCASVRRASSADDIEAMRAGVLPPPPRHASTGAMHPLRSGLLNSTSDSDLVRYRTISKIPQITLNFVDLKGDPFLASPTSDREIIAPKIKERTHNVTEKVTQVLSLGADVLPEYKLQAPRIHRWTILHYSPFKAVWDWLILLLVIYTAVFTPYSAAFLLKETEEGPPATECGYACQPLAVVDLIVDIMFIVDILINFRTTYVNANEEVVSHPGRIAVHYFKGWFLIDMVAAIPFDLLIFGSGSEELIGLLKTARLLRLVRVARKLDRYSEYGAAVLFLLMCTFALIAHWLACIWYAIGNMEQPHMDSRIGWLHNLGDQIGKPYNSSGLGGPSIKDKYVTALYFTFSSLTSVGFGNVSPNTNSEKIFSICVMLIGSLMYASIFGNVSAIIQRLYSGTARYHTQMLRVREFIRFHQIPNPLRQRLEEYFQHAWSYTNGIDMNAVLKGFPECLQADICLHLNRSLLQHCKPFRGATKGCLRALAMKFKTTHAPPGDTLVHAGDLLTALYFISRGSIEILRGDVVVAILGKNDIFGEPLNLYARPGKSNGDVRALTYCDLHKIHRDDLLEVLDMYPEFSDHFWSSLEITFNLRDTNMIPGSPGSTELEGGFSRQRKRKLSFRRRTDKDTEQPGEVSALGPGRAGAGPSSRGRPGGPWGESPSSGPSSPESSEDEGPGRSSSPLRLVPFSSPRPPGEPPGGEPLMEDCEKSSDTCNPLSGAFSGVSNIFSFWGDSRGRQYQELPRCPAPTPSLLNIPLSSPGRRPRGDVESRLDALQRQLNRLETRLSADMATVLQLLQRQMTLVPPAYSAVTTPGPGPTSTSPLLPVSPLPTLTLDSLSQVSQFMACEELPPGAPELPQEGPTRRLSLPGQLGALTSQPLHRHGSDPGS

| SMILES | hERG current change (%, negative = inhibition) at 1uM |
| --- | --- |
| Cc1cccc(-c2noc(-c3cc4ccccc4oc3=O)n2)c1 | 4.34% |
| COc1ccc(N2CC(C(=O)N[C@@H](CC(C)C)C(=O)NC3CCCC3)CC2=O)cc1 (some centres unmarked) | 13.8% |
| COC(=O)C1CCN(C(=O)N2CCOCC2)CC1 | 13.1% |
| COc1ccc(C(=O)Cn2nnc(-c3ccc(N4CCOCC4)cc3)n2)cc1OC | 0.578% |
| COC(=O)c1ccc(C23CC4(C2)[C@H](CN(Cc2cccnc2)[C@@H]4c2ccccc2)C3c2ccc(C(F)(F)F)cc2)cc1 (some centres unmarked) | 13.6% |
| COC(=O)c1nc(NC(=O)c2ccc(Br)cc2)n[nH]1 | 5.35% |
| CC(C)(C)C1(O)CC(C(F)(F)F)=NN1C(=O)Cc1ccc([N+](=O)[O-])cc1 (centres unmarked) | 2.23% |
| O=C(Cc1ccc(S(=O)(=O)N2CCCC2)s1)Nc1nc2c(s1)CCCC2 | 10.1% |
| COC(=O)c1ccc(CSc2nnc(C)n2N)o1 | -0.332% |
| CC(C)(C)SC(=O)CC1NS(=O)(=O)OC2CCCCC12 (centres unmarked) | 10.8% |
| CCOC(=O)N1CCN(C(=O)c2ccc3nc4cc(Cl)ccc4c(=O)n3c2)CC1 | -13.7% |
| CC(NC(=O)C12CC3CC(CC(O)(C3)C1)C2)c1ccc(Cl)cc1Cl (centres unmarked) | 15.3% |
| CCOC(=O)c1ccc(N=Cc2c(O)c3ccccc3oc2=O)cc1 | 10.3% |
| Cc1ccc(C)c(NS(=O)(=O)c2ccc(NC(=O)c3ccco3)cc2)c1 | 10.5% |
| COc1ccc2oc(C(=O)Nc3ccccn3)c(C)c2c1 | 16.1% |
| O=[N+]([O-])c1cccc(NC(=S)N2CCN(c3ccccn3)CC2)c1 | 11.1% |
| Nc1nc(SCC(=O)N2CCCC2)[nH]c(=O)c1NC(=O)c1ccco1 | 5.4% |
| CCCN(CCC)CCNC(=O)C1CCCN(S(=O)(=O)c2ccc3c(c2)oc(=O)n3C)C1 (centres unmarked) | 18.2% |
| COc1cc(NC(=O)Cn2c(=O)n(-c3cccc(C)c3)c(=O)c3c(C)c(C)sc32)cc(OC)c1 | 6.01% |

| SMILES | hERG current change (%, negative = inhibition) at 1uM |
| --- | --- |
| CC(N)Cc1cn(Cc2ccccc2)c2ccccc12.Cl (centres unmarked) | 7.84% |
| COCCNC(=O)/C(C#N)=C/c1cccs1 | 4.96% |
| COC(=O)c1ccc(N2CCN(C(=O)c3ccccc3)CC2)c(NC(C)=O)c1 | -14% |
| COC(=O)c1sc(NC(=O)CCCn2nc([N+](=O)[O-])cc2C)c(C(=O)OC)c1C | 1.06% |
| CC(C)OC(=O)Cn1cnc2ccc(Br)cc2c1=O | 7.88% |
| Cc1ccc(C(=O)Nc2c(N)nc(SCC(=O)Nc3cc(C)on3)[nH]c2=O)cc1 | 12.1% |
| CC1CCCN(C2=C(NS(=O)(=O)c3ccc(Br)cc3)C(=O)c3ccccc3C2=O)C1 (centres unmarked) | 6.8% |
| COc1ccccc1/C=C/[C@@H]1C[C@H]2CN(Cc3cccc(Cl)c3)C(=O)[C@]23CCCN13 | -17.3% |
| CC(C)Oc1ccc(C(CC(=O)O)NC(=O)C2CCCCC2)cc1 (centres unmarked) | 1.77% |
| Cc1cccc(CCNC(=O)c2cccc(NC3=NC4CS(=O)(=O)CC4S3)c2)c1 (centres unmarked) | 10.6% |
| OC(COc1ccccc1)CN1CCCC1 (centres unmarked) | 9.18% |
| O=C(NCCNC(=O)c1cccnc1)c1ccc(Br)cc1 | 29.6% |
| Cc1sc2nc(SCC(=O)NCc3ccco3)n(-c3ccccc3)c(=O)c2c1C | 10.7% |
| Cc1ccc(OCC(=O)N(Cc2cccs2)C2CCS(=O)(=O)C2)cc1C (centres unmarked) | 17.5% |
| Cc1cc(C)c(NC(=O)CSc2ccc(-c3cccnc3)nn2)c(C)c1 | 7.63% |
| COCCNC(=O)c1cccc(OC2CCN(Cc3ccccc3OCCO)CC2)c1 | 4.52% |
| CCOC(=O)c1c(C)[nH]c(C)c1S(=O)(=O)NCCc1cccs1 | 5.32% |
| O=C(NC1CCCCC1)N1CCCC(CNS(=O)(=O)Cc2ccccc2)C1 (centres unmarked) | -4.2% |
| O=C(c1cnn2c(C(F)F)cc(-c3ccccc3)nc12)N1CCCc2ccccc21 | -1.31% |

| SMILES | hERG current change (%, negative = inhibition) at 1uM |
| --- | --- |
| COC(=O)N/N=C/c1ccc(-c2ccccc2Cl)o1 | 8.96% |
| CCCCNC(=O)c1ccc(-n2c(=S)[nH]c3ccccc3c2=O)cc1 | 9.48% |
| CCN(CC(=O)NCc1ccc(F)cc1)CC(=O)Nc1ccc(S(=O)(=O)N2CCCC2)cc1 | 13.2% |
| CN(C)C(=O)NC(O)C(Cl)(Cl)Cl (centres unmarked) | 12.6% |
| COc1cccc(N2CC(O)=C(c3ccccc3)C2=N)c1 | 12.5% |
| CCOC(=O)C1CC(c2ccc(Cl)cc2)=NNC1=O (centres unmarked) | 10.6% |
| COc1ccc(CN(C)C(=O)c2ccccc2OCc2c(C)noc2C)cc1OC | 6.99% |
| COc1ccc(CCN(C)CCCC(C#N)(c2cc(OC)c(OC)c(OC)c2)C(C)C)cc1OC.Cl (centres unmarked) | -33.9% |
| COc1ccc(NS(=O)(=O)Cc2ccccc2Cl)cn1 | 8.75% |
| O=C(O)c1cccc(CSc2ncccn2)c1 | 0.666% |
| Nc1c(C(=O)CCC(=O)O)oc2ccc(Cl)cc12 | 2.17% |
| CCN(CC)S(=O)(=O)c1ccc(N2CCCC2)c(NS(=O)(=O)c2ccc(OC)cc2)c1 | 0.351% |
| O=C(c1ccccc1[N+](=O)[O-])N1CCCC(C(=O)N2CCCCCC2)C1 (centres unmarked) | 9.43% |
| S=c1[nH]nc(-c2cccnc2)n1Cc1ccccc1 | 6.79% |
| O=C(NCc1cccnc1)Nc1ccc(F)cc1F | 11.1% |
| COc1ccccc1N(CC(=O)NC(C)(C)C)C(=O)CCC(=O)Nc1ccccn1 | 14.6% |
| CC(=O)NCCC(=O)Nc1cc(S(=O)(=O)N2CCOCC2)ccc1Oc1ccc(F)cc1 | 0.698% |
| Cc1ccsc1CN(C(=O)c1ccccc1)C1CCS(=O)(=O)C1 (centres unmarked) | 10.1% |
